Changes are numbered by the printed parent chain. Results are given in words; binding and its absence hold for the method and conditions named. In cells and extracts the contact can be indirect. Some results given as binding are weak or reduced against the parent protein; the word gives no strength.
Experiments:
[1] = molecular target: T1, Smc3 S72C (S. cerevisiae) (UniProt P47037); experiment: cross-linking; in vivo BMOE cross-link of cysteine pairs in yeast cells arrested in late G1 by non-degradable Sic1(9m); Scc1-PK immunoprecipitated, western blot, band intensities quantified
T1 sequence: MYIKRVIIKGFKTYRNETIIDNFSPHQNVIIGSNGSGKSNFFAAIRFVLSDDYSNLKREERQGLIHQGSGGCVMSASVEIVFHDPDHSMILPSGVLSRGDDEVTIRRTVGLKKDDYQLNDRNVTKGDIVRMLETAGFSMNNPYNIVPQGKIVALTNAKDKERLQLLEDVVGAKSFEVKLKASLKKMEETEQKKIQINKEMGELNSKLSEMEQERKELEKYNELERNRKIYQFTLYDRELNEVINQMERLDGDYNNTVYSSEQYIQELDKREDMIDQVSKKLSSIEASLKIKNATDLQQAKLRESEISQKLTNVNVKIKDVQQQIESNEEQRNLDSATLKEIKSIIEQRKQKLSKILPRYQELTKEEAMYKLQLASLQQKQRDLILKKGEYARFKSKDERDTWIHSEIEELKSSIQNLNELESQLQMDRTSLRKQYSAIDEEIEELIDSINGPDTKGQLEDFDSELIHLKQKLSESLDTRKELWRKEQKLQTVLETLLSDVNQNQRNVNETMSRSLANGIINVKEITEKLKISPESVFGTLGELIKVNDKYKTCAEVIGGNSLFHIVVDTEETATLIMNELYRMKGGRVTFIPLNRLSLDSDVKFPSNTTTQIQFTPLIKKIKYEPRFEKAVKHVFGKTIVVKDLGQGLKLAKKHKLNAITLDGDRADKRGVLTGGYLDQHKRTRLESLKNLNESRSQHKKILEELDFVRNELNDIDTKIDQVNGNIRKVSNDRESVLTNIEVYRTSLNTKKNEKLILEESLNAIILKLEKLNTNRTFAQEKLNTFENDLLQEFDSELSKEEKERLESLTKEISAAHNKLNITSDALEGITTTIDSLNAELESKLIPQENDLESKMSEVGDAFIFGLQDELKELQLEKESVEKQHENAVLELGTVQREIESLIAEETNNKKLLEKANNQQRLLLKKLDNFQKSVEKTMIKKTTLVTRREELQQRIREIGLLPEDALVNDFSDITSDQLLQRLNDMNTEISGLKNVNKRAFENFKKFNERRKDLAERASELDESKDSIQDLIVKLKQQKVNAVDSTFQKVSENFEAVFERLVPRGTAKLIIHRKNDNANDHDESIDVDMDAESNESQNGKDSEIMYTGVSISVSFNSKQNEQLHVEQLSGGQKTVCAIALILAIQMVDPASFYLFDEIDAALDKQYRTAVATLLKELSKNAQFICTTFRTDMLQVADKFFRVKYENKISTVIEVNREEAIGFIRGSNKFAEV

[2] = molecular target: T2, Smc3^QQ W483R S72C (S. cerevisiae) (UniProt P47037); experiment: as above
T2 sequence: T1 sequence with K112Q, K113Q, W483R

B1: Scc2 E819C (natural protein, S. cerevisiae, UniProt Q04002 1-1493, looked up)
chain: MSYPGKDKNIPGRIIEALEDLPLSYLVPKDGLAALVNAPMRVSLPFDKTIFTSADDGRDVNINVLGTANSTTSSIKNEAEKERLVFKRPSNFTSSANSVDYVPTNFLEGLSPLAQSVLSTHKGLNDSINIEKKSEIVSRPEAKHKLESVTSNAGNLSFNDNSSNKKTKTSTGVTMTQANLAEQYLNDLKNILDIVGFDQNSAEIGNIEYWLQLPNKKFVLTTNCLTKLQMTIKNITDNPQLSNSIEITWLLRLLDVMVCNIKFSKSSLKMGLDDSMLRYIALLSTIVLFNIFLLGKNDSNLHRESYIMEPVNFLSDLIESLKILTIEYGSLKIEFDTFQEALELLPKYIRNGPFLDDNVTAKLVYIFSDLLMNNDIEATTNIQFQSFWDNVKRISSDILVSLFGSFDQQRGFIIEELLSHIEKLPTKRIQKKLRKVGNQNIYITDFTFTLMSMLENINCYSFCNQMKDIAPENIDLLKNEYKKQEEFLFNIVEHINDTILERFFKNPSALRYVIDNFVQDLLLLISSPQWPVTEKILSSLLKRLLSVYSPSMQVSANIETICLQLIGNIGSTIFDIKCSTRDHEDNNLIKMINYPETLPHFFKSFEECIAYNETIKCRRSATRFLWNLRLGTILILEEYTKDAKEQIITVDNELKKILEQIKDGGLGPELENREADFSTIKLDYFSILHAFELLNLYDPYLKLILSLLAKDKIKLRSTAIKCLSMLASKDKVILSNPMVKETIHRRLNDSSASVKDAILDLVSINSSYFEFYQQINNNYNDDSIMVRKHVLRINEKMYDETNDIVTKVYVIARILMKICDEEDNIIDMARLILLNRWILKVHEVLDQPEKLKEISSSVLLVMSRVAIMNEKCSQLFDLFLNFYLLNKEAHSKEAYDKITHVLTILTDFLVQKIVELNSDDTNEKNSIVDKQNFLNLLAKFADSTVSFLTKDHITALYPYMVSDEKSDFHYYILQVFRCTFEKLANFKQKFLYDLETTLLSRLPKMNVREIDEAMPLIWSVATHRHDTARVAKACSSCLSHLHPYINKANNEEAAIVVDGKLQRLIYLSTGFARFCFPKPSNDKIAFLQEGETLYEHITKCLLVLSKDKITHVIRRVAVKNLTKLCGNHPKLFNSRHVLHLLDKEFQSDQLDIKLVILESLYDLFLLEERKSVRNTGVNSTLSSNSILKKKLLKTNRVEFANDGVCSALATRFLDNILQLCLLRDLKNSLVAIRLLKLILKFGYTNPSHSIPTVIALFASTSQYIRHVAYELLEDLFEKYETLVFSSLSRGVTKAIHYSIHTDEKYYYKHDHFLSLLEKLCGTGKKNGPKFFKVLKRIMQSYLDDITDLTSTNSSVQKSIFVLCTNISNITFVSQYDLVSLLKTIDLTTDRLKEVIMDEIGDNVSSLSVSEEKLSGIILIQLSLQDLGTYLLHLYGLRDDVLLLDIVEESELKNKQLPAKKPDISKFSAQLENIEQYSSNGKLLTYFRKHVKDT
notes: Scc2, S. cerevisiae; source: S. cerevisiae W303, in vivo, whole-cell extract
binding [1]: binds | binding [2]: binds
